# Measurements published in paper PMC4336329 (PLoS ONE, 2015).
# Hit rate of the full screen: of about 310,000 compounds, about 14,000 (4.5%) showed an effect of 50% or more. The effect is printed as a negative number. The list shows a part of the results.
# Biological target: human ether-à-go-go-related gene (hERG) potassium channel (human, UniProt Q12809)
# Assay: primary screen, population patch clamp on CHO cells stably expressing hERG
# 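Also: peak tail current of the secondary pulse compared with the same well before compound.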
# Chain of human ether-à-go-go-related gene (hERG) potassium channel (Q12809 whole entry, looked up): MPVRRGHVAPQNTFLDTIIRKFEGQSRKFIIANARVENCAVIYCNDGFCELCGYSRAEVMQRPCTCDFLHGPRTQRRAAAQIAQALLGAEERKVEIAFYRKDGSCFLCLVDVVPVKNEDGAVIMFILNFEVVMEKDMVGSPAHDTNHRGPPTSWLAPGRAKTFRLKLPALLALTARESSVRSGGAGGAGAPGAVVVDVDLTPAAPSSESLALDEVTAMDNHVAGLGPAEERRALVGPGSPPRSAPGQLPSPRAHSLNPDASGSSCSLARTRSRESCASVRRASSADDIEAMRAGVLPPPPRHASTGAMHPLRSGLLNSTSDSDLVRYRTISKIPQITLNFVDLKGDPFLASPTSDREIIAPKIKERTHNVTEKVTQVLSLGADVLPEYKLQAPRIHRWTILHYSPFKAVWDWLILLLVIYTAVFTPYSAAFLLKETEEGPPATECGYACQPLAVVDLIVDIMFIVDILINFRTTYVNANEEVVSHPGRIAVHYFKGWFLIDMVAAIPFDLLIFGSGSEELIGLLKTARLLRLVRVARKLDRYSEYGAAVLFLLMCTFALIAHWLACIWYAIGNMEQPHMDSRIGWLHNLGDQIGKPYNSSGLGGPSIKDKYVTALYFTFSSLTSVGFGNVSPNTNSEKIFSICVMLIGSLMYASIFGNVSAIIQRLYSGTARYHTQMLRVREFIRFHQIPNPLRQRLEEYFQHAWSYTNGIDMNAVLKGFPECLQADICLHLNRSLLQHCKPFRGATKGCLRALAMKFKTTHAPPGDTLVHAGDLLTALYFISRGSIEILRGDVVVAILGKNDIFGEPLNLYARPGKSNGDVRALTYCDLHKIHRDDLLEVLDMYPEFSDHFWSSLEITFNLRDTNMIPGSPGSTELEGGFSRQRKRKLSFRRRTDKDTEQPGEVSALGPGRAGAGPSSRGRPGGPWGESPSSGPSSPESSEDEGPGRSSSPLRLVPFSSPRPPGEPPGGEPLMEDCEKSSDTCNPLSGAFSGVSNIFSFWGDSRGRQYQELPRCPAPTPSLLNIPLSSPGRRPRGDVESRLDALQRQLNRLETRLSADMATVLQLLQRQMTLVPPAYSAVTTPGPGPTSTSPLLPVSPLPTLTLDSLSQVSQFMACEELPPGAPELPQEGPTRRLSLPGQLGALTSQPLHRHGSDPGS
row,Compound,"hERG current change (%, negative = inhibition) at 10uM [%]"
1,CCOC(=O)COc1ccc(/C=C2\NC(=S)N(CC)C2=O)cc1,2.08
2,COc1ccc(S(=O)(=O)Nc2ccccc2OC)cc1NC(=O)Cc1cccs1,-4.21
3,C/C(=N\NC(=O)CN(c1ccccc1)S(=O)(=O)c1ccccc1[N+](=O)[O-])C(C)(C)C,-15
4,CCOC(=O)c1cnc(-n2nc(C)cc2C)nc1NNc1cc(C)nc(-c2ccccc2)n1,-5.89
5,Cc1ccc(/C=N/Nc2ccc3ccccc3n2)o1,-47.4
6,CC(=O)n1cc([C@@H]2C=C(C(=O)O)O[C@H](OCc3ccc(CO)cc3)C2)c2ccccc21,0.587
7,Cc1ccc2nc(SCC(=O)N3CC(C)OC(C)C3)nc(=O)n2c1 (stereo not shown),-13
8,Cc1cccc(Cn2c(N3CCc4ccccc4C3)nc3c2c(=O)[nH]c(=O)n3C)c1,-4.89
9,CCN(C(=O)CN1CCN(c2ccc(OC)cc2)CC1)c1c(N)n(Cc2ccccc2)c(=O)[nH]c1=O,-2.39
10,CC(C)(C)c1cc(OS(C)(=O)=O)ccc1O,12.8
11,O=C(Cc1ccccc1F)OCC(=O)N1CCN(C(=O)c2ccco2)CC1,-22.6
12,O=C(OCc1nc2ccccc2s1)c1cccc(N2C(=O)CCC2=O)c1,15.7
13,CC1=CC(C)(C)n2c(O)c(N=NC(N)=S)c3c(C)ccc1c32,14.8
14,CN1C(=O)/C(=C/c2ccco2)SC1=Nc1cccc(C(=O)O)c1,17.6
15,COc1cccc(NS(=O)(=O)c2ccc(OC)c(OC)c2)c1,-9.37
16,CCn1c2ccc(F)cc2c2nnc(SCCN3CCCCC3)nc21,-61
17,O=C(/C=C/c1ccco1)NCCc1ccccc1,10.9
18,CC(C)N1C(=O)S/C(=C\c2ccc(-c3ccc(Cl)c(C(=O)O)c3)o2)C1=O,28.5
19,Cc1cc(C(F)F)n2ncc(C(=O)NCc3ccccc3C(F)(F)F)c2n1,9.36
20,COc1cccc(C(C)NC(=O)Cc2cccs2)c1 (stereo not shown),16.1
21,CCOC(=O)C[n+]1c(C)csc1C.[Br-],9.24
22,Cc1cccnc1-n1c(CN2C(=O)c3ccccc3C2=O)nc2ccccc2c1=O,4.46

row,Compound,"hERG current change (%, negative = inhibition) at 10uM [%]"
1,COc1cccc(-n2c(CN3CCN(c4ccccc4)CC3)nc3ccc([N+](=O)[O-])cc3c2=O)c1,-8.34
2,C=CCN(c1cccc(C(F)(F)F)c1)S(=O)(=O)c1cccc(C(=O)OCC(=O)NC)c1,-39.3
3,Cc1ccccc1C(=O)NCCNC(=O)c1ccco1,17.2
4,O=C(CSc1nccn1Cc1ccco1)Nc1ccc(F)cc1,12.5
5,Cc1ccc(SCCNC(=O)c2ccc(C)c(S(=O)(=O)Nc3ccccc3C)c2)cc1,-5.49
6,NC(=O)c1ccccc1NC(=O)CCN1C(=O)c2ccccc2C1=O,-3.56
7,CCc1nnc(NC(=O)CSc2nc3cccnc3n2Cc2ccccc2)s1,2.43
8,CCCCNC(=O)[C@H]1C[C@H]1[C@@H](O)[C@H](CO)NC(=O)[C@H](CC(C)C)NC(=O)OC(C)(C)C,16.1
9,CCCN1CCN(c2ccc([N+](=O)[O-])cc2C#N)CC1,-72
10,Cc1ccc(OCCC(=O)OCC(=O)Nc2cc(S(=O)(=O)N(C)C)ccc2C)cc1,-26.6
11,CC1CC(C)(C)N(C(=O)CSc2ccc(-c3ccc(F)cc3)nn2)c2ccccc21 (stereo not shown),-2.49
12,COc1ccc(CNC(=O)CN(CCC(C)C)S(=O)(=O)c2ccc3c(c2)OCCO3)cc1,-7.73
13,CC(/C=N/n1c(-c2cccnc2)n[nH]c1=S)=C\c1ccco1,0.108
14,CCN(CC)CCNc1nc(-c2ccco2)c2c(c1C#N)CC(C)(C)OC2,-62.6
15,COC(=O)Cc1n[nH]c(=S)[nH]c1=O,24.4
16,CCCCn1c(-c2ccc(F)c(F)c2)nc2cc3[nH]c(=O)c(C(C)C)nc3cc21,5.72
17,Cc1cc(NC(=O)c2nn(C)c(C)c2Br)no1,14.4
18,Cc1ccc2[nH]c(=O)c(CN(Cc3cccs3)Cc3nnnn3CC3CCCO3)cc2c1 (stereo not shown),-22.4
19,COc1ccccc1C(=O)NCCC(=O)Nc1ccc(S(=O)(=O)Nc2ncccn2)cc1,-8.99
20,O=C1CC(N2CCN(S(=O)(=O)c3ccc([N+](=O)[O-])cc3)CC2)C(=O)N1c1ccccc1F (stereo not shown),-46.6
21,CCCC/C=C/C(NC(=O)c1ccc(-c2ccccc2)cc1)c1ccccc1 (stereo not shown),0.293
